Experimental findings from patent US9994626B2, “Stable polypeptides binding to human complement C5” (Swedish Orphan Biovitrum AB (publ), priority 2013, dated 2018) are described below.

The target in series [1] is T1, recombinant human albumin (Homo sapiens, UniProt P02768).
T1 construct: purchased Novozymes
Nature of the series: Human albumin ELISA. It counts as binding. The note with it: quantified against PSI0242 standard. An excerpt: For assessment of C5 binding compounds binding affinity for albumin, a human albumin ELISA utilizing recombinant human albumin (coating) and commercially available antibodies (primary and detecting) purchased from Novozymes, Affibody AB and DakoCytomation, respectively, was used. A method standard prepared from PSI0242 (SEQ ID NO:249), comprising a C5 binding polypeptide and an albumin binding domain of streptococcal protein G, was used for quantification of samples. A 96-well microplate was coated with recombinant human albumin. The plate was then washed with phosphate buffered saline containing 0.05 Tween 20 (PBST) and blocked for 1-2 hours with 1% casein in PBS. After a plate wash, the standard, method controls, control sample and test samples are added to the plate. After incubation for 2 hours, unbound material was removed by a wash. A goat Anti-AFFIBODY IgG (Affibody AB, cat no. 20.1000.01.0005) was added to the wells and the plate was incubated for 1.5 hours to allow binding to the bound C5 binding compounds. After a wash, rabbit anti-goat IgG HRP was allowed to bind to the goat antibodies for 1 h. After a final wash, the amount of bound HRP was detected by addition of TMB substrate, which was converted to a blue product by the enzyme. Addition of 1 M hydrochloric acid after 30 minutes stopped the reaction and the color of the well contents changed from blue to yellow. The absorbance at 450 nm was measured photometrically, using the absorbance at 650 nm as a reference wavelength. The color intensity was proportional to the amount of PSI0242 (SEQ ID NO:249) and the sample concentrations were determined from the standard curve.

Series [2] can be described thus: Accelerated stability study, 2 weeks at 37° C., SDS-PAGE and Reversed Phase HPLC (RPC). The note with it: for stability when compared with PSI0242: 2 weeks at 37° C., conclusion in words; for Main peak (% of total protein): RPC after 2 weeks at 37° C.; for Main peak (% of total protein) / RPC post peaks / RPC prepeaks / SDS-PAGE bands: 25 mM NaP/125 mM NaCl pH 7.0; for 2 weeks, 37° C. Main peak (% of total protein): RPC, data from example 2; for RPC post peaks / RPC prepeaks / SDS-PAGE bands: after 2 weeks at 37° C.

The nature of series [3]: 3 month stability test at 37° C., RPC. It counts as physicochemical. The note with it: for 3 months, 37° C. Main peak (% of total protein): RPC. An excerpt:
The 2 weeks data from example 2 is included in Table VIII below to make the interpretation easier.

Another series deals with T2, human C5 (Homo sapiens, UniProt P01031).
T2 construct: the β-chain corresponds to amino acid residues 19-673; the α-chain corresponds to amino acid residues 678-1676; purchased
The experiment in a line: Inhibition of hemolysis (classical complement pathway), antibody sensitized sheep erythrocytes. It is filed as cell-based. The note with it: compared to reference compound PSI0242.

Changes are numbered by the printed parent chain. Names may count otherwise.

B1: PSI0378: C5 binding compound derived from PSI0242 with substitutions N52S, D53E and D60E (protein)
chain: AEAKYAKEVLEAWDEIDRLPNLTIEQWLAFINKLDDDPSQSSELLSEAKKLSESQAPKVEGSLAEAKEAANAELDSYGVSDFYKRLIDKAKTVEGVEALKDAILAALP
modifications: Modified bacterial sequence
B1: in series [1], the “% of total protein content” value is 85 % of total protein content. For the same molecule, in series [2], the “stability when compared with PSI0242” value was “increased stability”; the “Main peak (% of total protein)” value is on record as 89 % of total protein; the “2 weeks, 37° C. Main peak (% of total protein)” value is 89 % of total protein; the RPC post peaks was found to be 0. In series [2], this molecule registered an RPC prepeaks of 0 and an SDS-PAGE bands of 1. Further, the “3 months, 37° C. Main peak (% of total protein)” value in series [3] was 59 % of total protein. In addition, the “proportion of protein in the original form after 3 months at 37° C. versus PSI0242 after 2 weeks” value in series [3] (result in words) is listed as “higher proportion of protein in the original form”. Further, the “inhibition of hemolysis, result in words” value with human C5 is given as “comparable to the reference compound”.

B2: PSI0410: C5 binding compound with linking moiety KVEGS (X60=E) while X52X53 is ND (protein)
chain: B1 chain with S52N, E53D
modifications: Modified bacterial sequence
For B2, the “% of total protein content” value in series [1] is on record as 150 % of total protein content. For the same molecule, in series [2], the “stability when compared with PSI0242” value was “increased stability”; the “Main peak (% of total protein)” value was 72 % of total protein; the “2 weeks, 37° C. Main peak (% of total protein)” value was 72 % of total protein; the RPC post peaks is 1. In series [2], this molecule gave an RPC prepeaks of 1 and an SDS-PAGE bands of 1. Moreover, the “3 months, 37° C. Main peak (% of total protein)” value in series [3] was 16 % of total protein. The “inhibition of hemolysis, result in words” value in the series with human C5 is “comparable to the reference compound”.

B3: PSI0242: known C5 binding compound of WO 2013/126006: polypeptide Z06175a (positions 1-60) with an albumin binding domain (protein)
chain: B1 chain with S52N, E53D, E60D
modifications: Modified bacterial sequence
As for B3, the “% of total protein content” value in series [1] is 103 % of total protein content. In series [2], the “Main peak (% of total protein)” value was 57 % of total protein, the RPC prepeaks was found to be 2 and the SDS-PAGE bands is listed as 2.
